Laboratory results reported in the supplement of paper PMC9446081.
Out of some 39,000 compounds screened, about 220 (0.56%) showed activity. Some of the results follow.

The compounds below were run on Escherichia coli K-12 BW25113 (assay: relative growth (OD600 normalised to plate interquartile mean) (fraction); higher = less growth inhibition, active = 0.2 or less). Details: 50 µM; LB; incubation time: overnight (16-24 h).
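Note: static incubation at 37 °C against the wild-type strain, values averaged over two biological replicates.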

Q: How did the relative growth turn out when `C[C@@H]1CCCCO[C@H](CN(C)CC2CCCCC2)[C@H](C)CN([C@H](C)CO)C(=O)c2cc(NC(=O)c3ccccc3)ccc2O1` was run?
A: inactive: 0.984

Q: For `CNC[C@H]1Oc2ccc(NC(=O)Cn3cnnn3)cc2CC(=O)N([C@@H](C)CO)C[C@@H]1C`, which relative growth is on record?
A: inactive: 0.99

Q: How did the relative growth turn out when `C[C@H](CO)N1C[C@H](C)[C@H](CN(C)C(=O)Nc2cccc3ccccc23)Oc2c(NC(=O)C3CCCCC3)cccc2C1=O` was run?
A: inactive: 0.905

Q: How did the relative growth turn out when `C[C@@H]1CN([C@@H](C)CO)C(=O)c2cc(NS(=O)(=O)c3cn(C)cn3)ccc2O[C@@H](C)CCCCO[C@H]1CN(C)C(=O)c1ccncc1` was run?
A: inactive: 1

Q: Which relative growth does the source give for `Cn1cc(C(F)(F)F)ccc1=S` here?
A: inactive: 1.02

Q: How did the relative growth turn out when `O=C(C[C@H]1CC[C@@H]2[C@H](COC[C@@H](O)CN2S(=O)(=O)c2cccc(Cl)c2)O1)N1CCOCC1` was run?
A: inactive: 1

Q: For `CO[C@@H]1CN(C)C(=O)c2cc(NC(=O)C3CCOCC3)ccc2OC[C@H](C)N(Cc2cccnc2)C[C@@H]1C`, which relative growth is on record?
A: inactive: 1.01

Q: `C[C@@H]1CCCCO[C@H](CN(C)Cc2ccc(C(=O)O)cc2)[C@@H](C)CN([C@@H](C)CO)C(=O)c2cc(NC(=O)Nc3ccc4c(c3)OCO4)ccc2O1` was tested. Which relative growth did it give?
A: inactive: 1

Q: `CCCN(C)C[C@@H]1OCCCC[C@H](C)Oc2ccc(NS(C)(=O)=O)cc2C(=O)N([C@@H](C)CO)C[C@H]1C` was tested. Which relative growth did it give?
A: inactive: 1.02

Q: With `COc1ccc(S(=O)(=O)N(C)C[C@H]2OCCCC[C@H](C)Oc3ccc(NC(=O)Nc4ccc(F)cc4)cc3C(=O)N([C@H](C)CO)C[C@@H]2C)cc1` as the compound, how does the relative growth read?
A: inactive: 1.02

Q: Which relative growth does the source give for `Cc1ccc(S(=O)(=O)Nc2ccc3c(c2)C(=O)N([C@H](C)CO)C[C@@H](C)[C@H](CN(C)C(=O)Nc2ccc4c(c2)OCO4)OCCCC[C@H](C)O3)cc1` here?
A: inactive: 1.01

Q: With `COc1ccc(NC(=O)Nc2ccc3c(c2)C(=O)N([C@@H](C)CO)C[C@@H](C)[C@@H](CN(C)C(=O)c2ccccc2)OCCCC[C@H](C)O3)cc1` as the compound, how does the relative growth read?
A: inactive: 1

Q: With `COCCOC(=O)N1C(=O)[C@@]2(c3cc(C#CC4=CCCCC4)ccc31)[C@H](c1ccc(OCCO)cc1)N1[C@H](c3ccccc3)[C@H](c3ccccc3)OC(=O)[C@H]1[C@@H]2C(=O)N1CCN(c2ncccn2)CC1` as the compound, how does the relative growth read?
A: inactive: 1.08

Q: For `CC(C)NC(=O)Nc1ccc2c(c1)C(=O)N([C@@H](C)CO)C[C@@H](C)[C@H](CN(C)Cc1ccc(Oc3ccccc3)cc1)O2`, which relative growth is on record?
A: inactive: 1.04

Q: How did the relative growth turn out when `CCCN(C)C[C@@H]1OCCCC[C@@H](C)Oc2ccc(NS(=O)(=O)c3cn(C)cn3)cc2C(=O)N([C@@H](C)CO)C[C@@H]1C` was run?
A: inactive: 1.01

Q: With `O/N=C/c1ccccc1C(F)(F)F` as the compound, how does the relative growth read?
A: inactive: 0.992

Q: For `C[C@@H]1CCCCO[C@@H](CN(C)CC2CCCCC2)[C@@H](C)CN([C@H](C)CO)C(=O)c2cc(NS(=O)(=O)c3ccccc3)ccc2O1`, which relative growth is on record?
A: inactive: 0.975

Q: With `COc1ccc(CN(C)C[C@@H]2Oc3c(NC(=O)Nc4cccc5ccccc45)cccc3C(=O)N([C@@H](C)CO)C[C@@H]2C)cc1` as the compound, how does the relative growth read?
A: inactive: 0.853

Q: For `COCC(=O)N1C[C@H](C)[C@@H](OC)CN(C)C(=O)c2ccc(NC(=O)c3ccc(OC)cc3)cc2OC[C@@H]1C`, which relative growth is on record?
A: inactive: 0.968

Q: Which relative growth does the source give for `CO[C@@H]1CN(C)C(=O)c2cc(NS(=O)(=O)c3cn(C)cn3)ccc2OC[C@@H](C)N(CC2CC2)C[C@@H]1C` here?
A: inactive: 0.991

Q: `C[C@@H]1CN([C@H](C)CO)C(=O)c2cc(NC(=O)Nc3ccc(F)cc3)ccc2O[C@@H]1CN(C)S(C)(=O)=O` was tested. Which relative growth did it give?
A: inactive: 0.972

Q: With `CN1CCN(C(=O)C[C@H]2C=C[C@H](NS(=O)(=O)c3cccc(F)c3)[C@H](CO)O2)CC1` as the compound, how does the relative growth read?
A: inactive: 0.99

Q: For `O=c1c(-c2ccc(O)cc2)coc2c(C3OC(CO)C(O)C(O)C3O)c(O)ccc12` (centres undefined), which relative growth is on record?
A: inactive: 0.851

Q: How did the relative growth turn out when `O=C1OCC=C[C@H]2O[C@@]34C=CCN(Cn5nnc6ccccc65)C(=O)[C@H]3N(CCO)C(=O)[C@@H]4[C@@H]12` was run?
A: inactive: 1.03

Q: How did the relative growth turn out when `CNC(=O)CO[C@H]1COC2(CCN(C(=O)c3ccn(C)n3)CC2)C1` was run?
A: inactive: 1.02

Q: `Cn1nc(Cn2ccnc2)c2c1CN(CCO)C2` was tested. Which relative growth did it give?
A: inactive: 1.01

Q: How did the relative growth turn out when `C[C@H]1CCCCO[C@@H](CN(C)C(=O)NC2CCCCC2)[C@@H](C)CN([C@@H](C)CO)C(=O)c2cc(NC(=O)Nc3cccc4ccccc34)ccc2O1` was run?
A: inactive: 1.02

Q: For `COc1ccc(S(=O)(=O)Nc2cccc3c2O[C@@H](CN(C)S(=O)(=O)c2ccc(C)cc2)[C@H](C)CN([C@@H](C)CO)C3=O)cc1`, which relative growth is on record?
A: inactive: 0.941

Q: For `C[C@@H]1CN([C@H](C)CO)C(=O)c2cc(NC(=O)CCCCCC(=O)Nc3ccccc3N)ccc2O[C@H]1CN(C)C(=O)Nc1ccccc1`, which relative growth is on record?
A: inactive: 0.937

Q: With `COc1ccc(S(=O)(=O)Nc2ccc3c(c2)C(=O)N([C@@H](C)CO)C[C@@H](C)[C@@H](CN(C)Cc2ccc(C(F)(F)F)cc2)OCCCC[C@H](C)O3)cc1` as the compound, how does the relative growth read?
A: inactive: 1.06

Q: For `CN1CCN(C(=O)C[C@@H]2C=C[C@@H](NS(=O)(=O)c3cccc(F)c3)[C@@H](CO)O2)CC1`, which relative growth is on record?
A: inactive: 0.98

Q: How did the relative growth turn out when `CCCCCCCCCCCCCCCC(=O)OCC(O)CO` (centres undefined) was run?
A: inactive: 0.934

Q: With `COCC#Cc1ccc2c(c1)O[C@@H](CN(C)Cc1ccc3c(c1)OCO3)[C@@H](C)CN([C@@H](C)CO)S2(=O)=O` as the compound, how does the relative growth read?
A: inactive: 0.983

Q: `CCS(=O)(=O)N1CCOC[C@]2(CN(c3cnn(C)c3)C(=O)CO2)C1` was tested. Which relative growth did it give?
A: inactive: 1.03

Q: Which relative growth does the source give for `C[C@@H]1CN([C@H](C)CO)C(=O)c2cc(NC(=O)Nc3ccc(C(F)(F)F)cc3)ccc2O[C@@H]1CN(C)C(=O)Nc1ccc(C(F)(F)F)cc1` here?
A: inactive: 1

Q: Which relative growth does the source give for `COc1ccc(NC(=O)N[C@H]2CC[C@@H](CCNC(=O)CN3CCOCC3)O[C@@H]2CO)cc1` here?
A: inactive: 0.986

Q: With `C[C@H](CO)N1C[C@H](C)[C@H](CN(C)Cc2ccc(F)cc2)Oc2ncc(-c3cccc(C(F)(F)F)c3)cc2C1=O` as the compound, how does the relative growth read?
A: inactive: 0.987

Q: For `COC(=O)[C@H](Cc1ccccc1)N1CC2=C[C@@H]([C@@H](O)CCn3cc(C(=O)NO)nn3)n3c(=O)n(C)c(=O)n3[C@@H]2[C@@H](C2CC2)O1`, which relative growth is on record?
A: inactive: 0.967

Q: Which relative growth does the source give for `C[C@H]1CN([C@@H](C)CO)C(=O)Cc2cc(NS(=O)(=O)c3ccc(F)cc3)ccc2O[C@H]1CN(C)C(=O)Nc1cccc2ccccc12` here?
A: inactive: 0.988

Q: `COc1ccc(CN(C)C[C@@H]2Oc3c(NS(C)(=O)=O)cccc3C(=O)N([C@H](C)CO)C[C@H]2C)cc1` was tested. Which relative growth did it give?
A: inactive: 0.997

Q: For `NCC[C@H]1CC[C@@H](NC(=O)Nc2ccc(F)cc2)[C@@H](CO)O1`, which relative growth is on record?
A: inactive: 0.988

Q: For `COCC(=O)N1C[C@H](C)[C@H](OC)CN(C)C(=O)c2ccc(NC(=O)c3ccc(OC)cc3)cc2OC[C@H]1C`, which relative growth is on record?
A: inactive: 0.984

Q: For `C=CCC[C@@H](Cc1ccc(F)cc1)C(=O)OC[C@H](Cc1c[nH]c2ccccc12)NC(=O)[C@@H](CC=C)CC(=O)N[C@H](CO)Cc1ccccc1`, which relative growth is on record?
A: inactive: 1.06

Q: `C[C@H]1CN([C@@H](C)CO)S(=O)(=O)c2ccc(C#Cc3ccccc3)cc2O[C@@H]1CN(C)S(=O)(=O)c1ccccc1F` was tested. Which relative growth did it give?
A: inactive: 1.02

Q: With `CN(C)CCCNC(=O)C[C@@H]1CC[C@@H]2[C@H](COC[C@H](O)CN2C(=O)Nc2cc(Cl)cc(Cl)c2)O1` as the compound, how does the relative growth read?
A: inactive: 0.987

Q: For `C[C@@H]1CN([C@@H](C)CO)C(=O)c2cccc(NC(=O)Nc3ccc(F)cc3)c2O[C@H]1CN(C)Cc1ccc(Cl)c(Cl)c1`, which relative growth is on record?
A: inactive: 1

Q: For `CNC[C@@H]1OCCCC[C@H](C)Oc2ccc(NC(=O)c3ccncc3)cc2C(=O)N([C@@H](C)CO)C[C@H]1C`, which relative growth is on record?
A: inactive: 1.03

Q: Which relative growth does the source give for `Cc1noc(C)c1NC(=O)N(C)C[C@@H]1OCCCC[C@@H](C)Oc2ccc(NC(=O)CCC(F)(F)F)cc2C(=O)N([C@H](C)CO)C[C@@H]1C` here?
A: inactive: 0.957

Q: `C[C@@H]1CN([C@H](C)CO)C(=O)c2cc(NC(=O)C3CCCCC3)ccc2O[C@@H](C)CCCCO[C@H]1CN(C)Cc1ccc(C(F)(F)F)cc1` was tested. Which relative growth did it give?
A: inactive: 0.984

Q: How did the relative growth turn out when `COc1ccc(CN(C)C[C@@H]2OCCCC[C@@H](C)Oc3ccc(NC(=O)NC4CCCCC4)cc3C(=O)N([C@H](C)CO)C[C@@H]2C)cc1` was run?
A: inactive: 0.997

Q: With `COc1cccc(-c2cn(CC[C@@H]3CC[C@H](NC(=O)CN(C)C)[C@H](CO)O3)nn2)c1` as the compound, how does the relative growth read?
A: inactive: 0.987

Q: `CN(C)C(=O)N1CCNCC1` was tested. Which relative growth did it give?
A: inactive: 1.02

Q: Which relative growth does the source give for `C[C@@H]1CN([C@H](C)CO)C(=O)c2cc(NC(=O)Nc3cccc4ccccc34)ccc2O[C@@H]1CN(C)S(=O)(=O)c1cccs1` here?
A: inactive: 1.03

Q: `Cc1ccc(S(=O)(=O)N(C)C[C@@H]2Oc3ccc(NC(=O)Nc4ccc(C(F)(F)F)cc4)cc3CC(=O)N([C@@H](C)CO)C[C@@H]2C)cc1` was tested. Which relative growth did it give?
A: inactive: 1.03

Q: With `C[C@@H]1CCCCO[C@H](CN(C)Cc2ccc(Cl)c(Cl)c2)[C@@H](C)CN([C@H](C)CO)C(=O)c2cc(NC(=O)CCC(F)(F)F)ccc2O1` as the compound, how does the relative growth read?
A: inactive: 1.01

Q: For `O.O=C([O-])CC(O)(CC(=O)[O-])C(=O)[O-].[Li+].[Li+].[Li+]`, which relative growth is on record?
A: inactive: 1.17

Q: With `Cc1ccc(S(=O)(=O)Nc2ccc3c(c2)C(=O)N([C@@H](C)CO)C[C@@H](C)[C@@H](CN(C)C(=O)Nc2cccc4ccccc24)OCCCC[C@@H](C)O3)cc1` as the compound, how does the relative growth read?
A: inactive: 0.998

Q: Which relative growth does the source give for `CC(C)NC(=O)N(C)C[C@@H]1Oc2ccc(NC(=O)CCN3CCOCC3)cc2CC(=O)N([C@H](C)CO)C[C@@H]1C` here?
A: inactive: 0.998

Q: How did the relative growth turn out when `CCCCn1c(-c2ccccc2)nc(-c2ccccc2)c1CN(Cc1ccc2c(c1)OCO2)Cc1ccc2c(c1)OCO2` was run?
A: inactive: 1.08
